PubChem BioAssay AID493208 (National Center for Advancing Translational Sciences (NCATS), 2011)
The whole screen tested about 44,000 compounds, of which about 340 (0.77%) were called active. Inconclusive results (about 5%) are left out. The call rests on the fitted dose curve; in most records, active means well fitted inhibition curve with a large enough effect; inconclusive means small, poorly fitted or top-dose-only effect; inactive means flat fitted curve, though single readings scatter. This is one part of the list.

assay: Acumen qHTS Assay for Inhibitors of the mTORC1 Signaling Pathway in MEF (Tsc2-/-, p53-/-) Cells: Sytravon; conditions: phospho-rpS6 immunofluorescence/PI, 24 h; series mostly up to 38.3 µM; activity change, negative = inhibition: at the top concentration;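 further: plate controls were DMSO for no effect and rapamycin for full effect; nearly all actives have a fitted effect of over 50% in size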
Procedure, shortened: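 Read-out: phospho-S6 Alexa-488 intensity over PI intensity per well, scored as % active cells using thresholds from rapamycin (7.5 nM) and DMSO controls. Tsc2-/-, p53-/- MEFs exposed to compound for 24 h; PI cell count recorded as viability.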

Activity change, negative = inhibition, inactive:
Cc1cc(C)c2c(=O)cc(C(=O)Nc3ccc(S(=O)(=O)N(C)Cc4ccccc4)cc3)oc2c1 6.58%, O=C(C1CCN(S(=O)(=O)c2cccc3nonc23)CC1)N1CCN(c2ccccc2F)CC1 -1.63%, CCOC(=O)c1sc2ccccc2c1S(=O)(=O)N1CCN(c2cccc(C)c2C)CC1 2.61%, Cc1nn(-c2ccc(F)cc2)c(-n2cccc2)c1C(=O)NCCCN1CCN(c2cccc(Cl)c2)CC1 -4.56%, COc1cccc(NC(=O)Cn2c(=O)n(CC(=O)NCc3ccc(C)cc3)c(=O)c3sccc32)c1 2.83%, Nc1nnc(SCC(=O)Nc2ccccc2)s1 -9.56%, Cc1ccc2nc(-c3c[nH]c4ccccc34)c(Nc3ccccc3C)n2c1 -19.5%, Cc1cc(C)c(NC(=O)CN2C(=O)c3cccnc3Oc3ccc(C)cc32)c(C)c1 -3.25%, Cc1ccc(-c2cc(NC(=O)COc3ccc(Cl)c(C)c3)on2)cc1 -0.358%, CCN1CCN(C(=O)Cn2ncc3c4ccccc4n(Cc4ccccc4)c3c2=O)CC1 1.35%, Cc1ccc(/C=C/C(=O)Nc2ccc(S(N)(=O)=O)cc2)o1 -6.38%, Cc1cc(C)c(Cn2c3ccccc3c3cnn(CC(=O)NCc4ccccn4)c(=O)c32)c(C)c1 -3.86%, O=C(CCS(=O)(=O)c1ccc(Br)cc1)Nc1ccc(Cl)c(C(F)(F)F)c1 1.36%, CCOC(=O)c1cccc(NC(=O)c2cn(-c3cccc(OC)c3)c(=O)c3ccccc23)c1 -18.4%, COc1ccccc1CCNC(=O)C(=O)NCC(c1cccs1)S(=O)(=O)c1ccccc1 (stereo not given) -11.7%, Fc1cc(F)c2ncc3c(-c4ccccc4)nn(-c4cccc(Cl)c4)c3c2c1 -1.77%, CC(C)OCCCNC(=O)C(=O)Nc1ccc2nc3n(c(=O)c2c1)CCCCC3 -0.468%, Cc1ccc(Sc2ccc(N3CCC(C(=O)Nc4ccc(C)c(F)c4)CC3)nn2)cc1 1.53%, Cc1cccc(Cn2c(=O)n(Cc3ccccc3)c(=O)c3oc4ccccc4c32)c1 3.4%, Cc1ccccc1NC(=O)C1CCN(C(=O)c2cnn(-c3ccccc3)c2-n2cccc2)CC1 -0.151%, COc1cc(NC(=O)N(Cc2ccco2)C2CCN(C(C)=O)CC2)cc(OC)c1OC -8.05%, Cc1cccc(-c2nc3nc(C)cc(NCc4ccccc4Cl)n3n2)c1 -3.34%, CC1CCN(c2oc(-c3ccc(COc4ccccc4)o3)nc2C#N)CC1 -19.5%, CCc1ccc(-n2c(N3CCN(c4cccc(Cl)c4)CC3)nc3ccccc3c2=O)cc1 -8.91%, Cc1ccc(-n2c(SCC(=O)NCc3ccccc3)nc3n[nH]c(C)c3c2=N)cc1Cl -2.62%, O=C(NCC(c1cccs1)S(=O)(=O)c1cccs1)c1ccc(Cl)cc1 (stereo not given) -4.33%, CC(C)c1cnc2c(c1SCc1cccc(F)c1)c(=O)n(C)c(=O)n2C -12.3%, Cc1ccc(-c2nc3nc(C)cc(C)n3c2Nc2ccc3c(c2)OCCO3)cc1 -0.286%, CC(=O)N1CCc2cc(Br)cc(S(=O)(=O)N3CCC(C)CC3)c21 0.592%, CCOc1ccc(NC(=O)Cn2c(=O)n(Cc3nc(-c4ccccc4)no3)c(=O)c3cc4c(cc32)OCO4)cc1 -0.438%, CC(=O)c1ccc(NC(=O)c2nc(-c3ccccc3)n(-c3ccc(Cl)cc3)n2)cc1 -0.165%, CCOC(=O)c1cc2c(=O)n3ccccc3nc2n(CCOC)c1=NC(=O)C(C)(C)Oc1ccc(Cl)cc1 1.3%, Cc1nc2nc(NC(=O)C(C)(C)C)[nH]n2c(=O)c1Cc1ccccc1 5.47%, Cc1ccc(Cn2ccn(CC(=O)Nc3c(C)cc(C)cc3C)c(=O)c2=O)cc1 -1.03%, CCCCN(C)CCCNC(=O)Cn1ncc2c3ccccc3n(Cc3ccccc3F)c2c1=O -0.143%, COc1ccc(NC(=O)Cn2c(=O)oc3cc(S(=O)(=O)NCc4ccccc4)ccc32)c(OC)c1 0.936%, Cc1noc(-c2ccc(N3CCC(C)CC3)c([N+](=O)[O-])c2)n1 -7.85%, COc1ccc(NS(=O)(=O)c2cc3c(cc2C)NC(=O)CO3)c(OC)c1 -1.03%, O=C(CSC1=Nc2ccccc2C2=NC(Cc3ccccc3)C(=O)N12)Nc1ccccc1C(F)(F)F (stereo not given) 5.85%, COc1cc(NC(=O)C2CCN(S(=O)(=O)c3ccc4c(c3)oc(=O)n4C)CC2)cc(OC)c1 -1.41%, Cc1cn2c(=O)cc(COc3ccccc3NC(=O)c3ccc(C(C)(C)C)cc3)nc2s1 1.14%, Cc1cccc(CNC(=O)c2oc3c(c2C)-c2nn(Cc4cccc(Cl)c4)cc2CC3)c1 -17.8%, CCOc1ccc(CN2C(=O)c3ccccc3Sc3ccc(C(=O)NC)cc32)cc1 2.24%, COC(=O)c1ccc2c(c1)N(CC(=O)Nc1cccc(Cl)c1C)C(=O)c1ccccc1S2 0.0086%, CC(C)NC(=O)Cn1c(=O)nc(-c2ccccc2F)c2cc(Cl)ccc21 0%, COc1ccc(-n2nnc(-c3nc(-c4cccs4)no3)c2N)cc1OC -1.04%, COC(=O)c1c(NC(=O)c2nc(SCc3cccc(C)c3)ncc2Cl)sc2c1CCCC2 1.7%, CC(=O)N1CCCC1c1nc2ccccc2n1Cc1cccc(Cl)c1 (stereo not given) 2.53%, COc1cc(NC(=O)CC(c2ccc(C)cc2)N2Cc3ccccc3C2=O)cc(OC)c1 (stereo not given) -5.22%, Cc1ccc(-c2noc(-c3ccc(NCc4ccco4)c([N+](=O)[O-])c3)n2)cc1 -5.15%, CC1=C(c2ccc(F)cc2)S(=O)(=O)NC1=NCc1ccccc1F -1.89%, COc1cc(C2CC(=O)c3c([nH]c(C(=O)OCC4CCCCC4)c3C)C2)cc(OC)c1OC (stereo not given) -19.8%, COc1ccccc1C(=O)Nc1nc2nc(-c3ccccc3)cc(=O)n2[nH]1 0.175%, CCc1nn2c(=O)cc(COC(=O)c3ccc(NC(=O)c4cccs4)cc3)nc2s1 0%, Cc1ccccc1NS(=O)(=O)c1ccc2[nH]cc(C(=O)NC(C)c3ccccc3)c(=O)c2c1 (stereo not given) 0.6%, CCOc1ccccc1CNC(=O)Cn1ncn2nc(-c3cccs3)cc2c1=O 1.33%, Cc1ccc(C)c(CNC(=O)C2CCN(c3nc4ccccc4nc3C(F)(F)F)CC2)c1 -0.541%, COc1ccc(Nc2nnc(-c3cc4c(ccc5ccccc54)oc3=O)s2)cc1 6.41%, COc1ccccc1CCNC(=O)C(=O)NCC(c1cccs1)S(=O)(=O)c1ccc(C)cc1 (stereo not given) 0.59%, O=C1C(=O)N(C2CCN(C(=O)c3ccc(Cl)cc3)CC2)CCN1Cc1ccc(F)cc1 -1.49%
